# Results reported in the supplement of paper PMC8728848.
# The other results are listed elsewhere or left out.
# Experiments:
# Experiment in all cases: glycan array binding signal (z-score within array); higher = stronger binding
# Settings in all cases: glycan notation: IUPAC condensed, linker removed; mutation: E227G
# [1] = molecular target: Man(a1-2)Man(a1-3)[Man(a1-2)Man(a1-6)]Man
# Summary of the method: (§1)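 Glycan array data were curated from 3228 arrays in the Consortium for Functional Glycomics database and kept only where the protein sequence was available. Glycan names were converted to IUPAC-condensed notation, and columns mapping to the same glycan were averaged. The binding signal is a within-array Z-score, averaged across arrays of the same protein sequence at different concentrations or buffers and across linkers. Negative Z-scores can be read as non-binding.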
# [2] = molecular target: Man(a1-2)Man(a1-3)[Man(a1-2)Man(a1-6)]Man(a1-6)[Man(a1-2)Man(a1-2)Man(a1-3)]Man
# Summary of the method: as §1
# [3] = molecular target: Man(a1-2)Man(a1-3)[Man(a1-2)Man(a1-6)]Man(a1-6)[Man(a1-2)Man(a1-2)Man(a1-3)]Man(b1-4)GlcNAc(b1-4)GlcNAc
# Summary of the method: as §1
# [4] = molecular target: Man(a1-2)Man(a1-3)[Man(a1-6)]Man(a1-6)[Man(a1-2)Man(a1-3)]Man(b1-4)GlcNAc(b1-4)GlcNAc
# Summary of the method: as §1
# [5] = molecular target: Man(a1-2)Man(a1-6)[Man(a1-3)]Man(a1-6)[Man(a1-2)Man(a1-2)Man(a1-3)]Man
# Summary of the method: as §1
# [6] = molecular target: Man(a1-2)Man(a1-6)[Man(a1-3)]Man(a1-6)[Man(a1-2)Man(a1-2)Man(a1-3)]Man(b1-4)GlcNAc(b1-4)GlcNAc
# Summary of the method: as §1
# Man(a1-3)[Man(a1-6)]Man = molecular target: Man(a1-3)[Man(a1-6)]Man
# Summary of the method: as §1
# [7] = molecular target: Man(a1-3)[Man(a1-6)]Man(a1-6)[Man(a1-2)Man(a1-3)]Man(b1-4)GlcNAc(b1-4)GlcNAc
# Summary of the method: as §1
# [8] = molecular target: Man(a1-3)[Man(a1-6)]Man(a1-6)[Man(a1-3)]Man
# Summary of the method: as §1
# [9] = molecular target: Man(a1-3)[Man(a1-6)]Man(a1-6)[Man(a1-3)]Man(b1-4)GlcNAc(b1-4)GlcNAc
# Summary of the method: as §1
# [10] = molecular target: Man(a1-3)[Man(a1-6)]Man(b1-4)GlcNAc(b1-4)GlcNAc
# Summary of the method: as §1
# [11] = molecular target: Man(a1-3)[Man(a1-6)]Man(b1-4)GlcNAc(b1-4)[Fuc(a1-6)]GlcNAc
# Summary of the method: as §1
# Man(a1-6)Man = molecular target: Man(a1-6)Man
# Summary of the method: as §1
# Man(b1-4)GlcNAc = molecular target: Man(b1-4)GlcNAc
# Summary of the method: as §1
# MurNAc(b1-4)GlcNAc = molecular target: MurNAc(b1-4)GlcNAc
# Summary of the method: as §1
# Neu5Ac(a2-3)Gal = molecular target: Neu5Ac(a2-3)Gal
# Summary of the method: as §1
# [12] = molecular target: Neu5Ac(a2-3)Gal(b1-3)GalNAc
# Summary of the method: as §1
# [13] = molecular target: Neu5Ac(a2-3)Gal(b1-3)GalNAc(b1-3)Gal(a1-4)Gal(b1-4)Glc
# Summary of the method: as §1
# [14] = molecular target: Neu5Ac(a2-3)Gal(b1-3)GalNAc(b1-4)Gal(b1-4)Glc
# Summary of the method: as §1
# [15] = molecular target: Neu5Ac(a2-3)Gal(b1-3)GalNAc(b1-4)[Neu5Ac(a2-3)]Gal(b1-4)Glc
# Summary of the method: as §1
# [16] = molecular target: Neu5Ac(a2-3)Gal(b1-3)GalNAc(b1-4)[Neu5Ac(a2-8)Neu5Ac(a2-3)]Gal(b1-4)Glc
# Summary of the method: as §1
# [17] = molecular target: Neu5Ac(a2-3)Gal(b1-3)GalNAc6S
# Summary of the method: as §1
# [18] = molecular target: Neu5Ac(a2-3)Gal(b1-3)GlcNAc
# Summary of the method: as §1
# [19] = molecular target: Neu5Ac(a2-3)Gal(b1-3)GlcNAc(b1-2)Man
# Summary of the method: as §1
# [20] = molecular target: Neu5Ac(a2-3)Gal(b1-3)GlcNAc(b1-2)Man(a1-3)[GlcNAc(b1-4)][Neu5Ac(a2-3)Gal(b1-3)GlcNAc(b1-2)Man(a1-6)]Man(b1-4)GlcNAc(b1-4)GlcNAc
# Summary of the method: as §1
# [21] = molecular target: Neu5Ac(a2-3)Gal(b1-3)GlcNAc(b1-2)Man(a1-3)[Neu5Ac(a2-3)Gal(b1-3)GlcNAc(b1-2)Man(a1-6)]Man(b1-4)GlcNAc(b1-4)GlcNAc
# Summary of the method: as §1
# [22] = molecular target: Neu5Ac(a2-3)Gal(b1-3)GlcNAc(b1-2)[Neu5Ac(a2-3)Gal(b1-3)GlcNAc(b1-4)]Man(a1-6)[Neu5Ac(a2-3)Gal(b1-3)GlcNAc(b1-2)Man(a1-3)]Man(b1-4)GlcNAc(b1-4)GlcNAc
# Summary of the method: as §1
# [23] = molecular target: Neu5Ac(a2-3)Gal(b1-3)GlcNAc(b1-3)Gal(b1-3)GlcNAc
# Summary of the method: as §1
# [24] = molecular target: Neu5Ac(a2-3)Gal(b1-3)GlcNAc(b1-3)Gal(b1-4)GlcNAc
# Summary of the method: as §1
# [25] = molecular target: Neu5Ac(a2-3)Gal(b1-3)GlcNAc(b1-3)GalNAc
# Summary of the method: as §1
binder,measurement,setting,value
"Epa1-NP-mutant-E227G (Candida glabrata), Q6VBJ0 (protein) MILNPALFLNKCVCIYTTLILLLLTNGGYATSSNDISLASKDPTTFPLGCSPDITTPKKGLSMELYSYDFRKKGSYPCWDAAYLDPNYPRTGYKSHRLLAKVDGVTGNINFYYHATKGCTPQLGHLPASYNYPKPLTMTNFTMLLYGYFRPKVTGFHTFTISADDLLFVNFGAGNAFDCCRRDSSADHFGNYQAYAIWGSKTAKDELTVHLDAGVYYPIRLFYNNRGYDGALSFTFKTESNENTVSDFSEYFFSLDDTEEGCPGLISYDSSCASVKTSKIIGIDYHTETPNENLVPITKTIYHLGIPCTGTTTTPLCGSGFYDPLANKCVTINTSSTSSVTKTTSHTTSKEVSFHSSISSQKTLIPKSIPSPYGPIKSQSIPTEMETSSEISSSEYAFSDVISTPSHSPYTKKHSSLNSSSYTSTVIHSLTSYSISQGIFSTSLSEQNITSKSSTDKFSTATSMSNNITQSSIIISQFSTNNENYTTTSMHTSSDKISTETLNNSISTTTSILFSNSSTILKNNTTIISSDKDTHYHPVNPTIVCSTNKTEIICASITQPSISNSNNHWSSSVLKFNSTTVRSTLPSSAGSNETSINVPFSSSTESNTSTSSTSTSNSKMVRSTLPSSAGSNETSISVPFSSSTESNTSTSSTSTSNSKMVRSTLPSSAGSNETSINVPFSSSTESNTSTSSTSTSNSKTVRSTPFSSAGIIMTSLSQRNNKSASSYASSNSKCYNTADSCRKVHSTPSYLLTSSYTSEGVDYDCSLVSTKLKINDTNCVNNKHTTKSCLKTSVTTTIPTLEIKTARKSSSNTIGLHSYPTSSPNKSISSAPIIGYISSFKTIKTASPSYQTSDLTTITTITSLNNPGSTAVENTHESNDKSRKTSSNDISSKHSVIKETKDAVESSNKSHQTNTLKCSSIIIASSSHNSYESLGGTTLTLTLSKVYSPQNNDTLPFLEISEVNPSRTVLPESSKMMQYLTSTEERNKTARNTIATNIVSISTFHFEGEGNAIRMGYTQLLLMLIGIIVMNIGT",glycan array binding signal (z-score),[1],-0.26
same,glycan array binding signal (z-score),[2],-0.144
same,glycan array binding signal (z-score),[3],-0.127
same,glycan array binding signal (z-score),[4],-0.291
same,glycan array binding signal (z-score),[5],0.017
same,glycan array binding signal (z-score),[6],-0.173
same,glycan array binding signal (z-score),Man(a1-3)[Man(a1-6)]Man,-0.126
same,glycan array binding signal (z-score),[7],-0.16
same,glycan array binding signal (z-score),[8],-0.162
same,glycan array binding signal (z-score),[9],-0.307
same,glycan array binding signal (z-score),[10],-0.182
same,glycan array binding signal (z-score),[11],-0.132
same,glycan array binding signal (z-score),Man(a1-6)Man,-0.227
same,glycan array binding signal (z-score),Man(b1-4)GlcNAc,-0.19
same,glycan array binding signal (z-score),MurNAc(b1-4)GlcNAc,-0.166
same,glycan array binding signal (z-score),Neu5Ac(a2-3)Gal,-0.003
same,glycan array binding signal (z-score),[12],-0.211
same,glycan array binding signal (z-score),[13],-0.212
same,glycan array binding signal (z-score),[14],-0.209
same,glycan array binding signal (z-score),[15],-0.222
same,glycan array binding signal (z-score),[16],-0.211
same,glycan array binding signal (z-score),[17],-0.221
same,glycan array binding signal (z-score),[18],-0.16
same,glycan array binding signal (z-score),[19],-0.13
same,glycan array binding signal (z-score),[20],-0.114
same,glycan array binding signal (z-score),[21],0.018
same,glycan array binding signal (z-score),[22],0.068
same,glycan array binding signal (z-score),[23],-0.229
same,glycan array binding signal (z-score),[24],-0.256
same,glycan array binding signal (z-score),[25],-0.191
